“And” between values parts separate entries of the source, which are not always exact repeats. Equal values may be shown once. Screen size: about 200,000 compounds; about 4,500 (2.2%) were called active. Inconclusive results, whose numbers are uncertain, are shown with a selection of clear calls. Calls come from the whole dose curve; as a rule, active = well fitted inhibition curve with a large enough effect; inconclusive = small, poorly fitted or top-dose-only effect, or effect the other way; inactive = flat fitted curve, though single readings scatter. Where the call is inconclusive, the potency comes from a doubtful curve fit.
target: Cruzipain (Trypanosoma cruzi) (UniProt P25779); assay: qHTS Assay for Promiscuous and Specific Inhibitors of Cruzain (without detergent); settings: purified cruzain, Z-FR-AMC fluorescence, no detergent; note: nearly all actives have a fitted effect of over 40% in size;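 for max response, negative = inhibition: plate controls were enzyme without inhibitor for no effect and buffer without enzyme for full effect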
Procedure, shortened: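 Purified cruzain at 1.5 nM, pre-incubated 15 min with compound at room temperature in 100 mM sodium acetate pH 5.5, 5 mM DTT, 0.00005% Triton X-100. Reaction started with 2 uM Z-FR-AMC; AMC fluorescence increase over 60 s gives rate.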
Potency is the fitted concentration of half-maximal effect; tags give direction and shape of the fitted curve.

Sequence of UniProt P25779 (P25779 whole entry, looked up): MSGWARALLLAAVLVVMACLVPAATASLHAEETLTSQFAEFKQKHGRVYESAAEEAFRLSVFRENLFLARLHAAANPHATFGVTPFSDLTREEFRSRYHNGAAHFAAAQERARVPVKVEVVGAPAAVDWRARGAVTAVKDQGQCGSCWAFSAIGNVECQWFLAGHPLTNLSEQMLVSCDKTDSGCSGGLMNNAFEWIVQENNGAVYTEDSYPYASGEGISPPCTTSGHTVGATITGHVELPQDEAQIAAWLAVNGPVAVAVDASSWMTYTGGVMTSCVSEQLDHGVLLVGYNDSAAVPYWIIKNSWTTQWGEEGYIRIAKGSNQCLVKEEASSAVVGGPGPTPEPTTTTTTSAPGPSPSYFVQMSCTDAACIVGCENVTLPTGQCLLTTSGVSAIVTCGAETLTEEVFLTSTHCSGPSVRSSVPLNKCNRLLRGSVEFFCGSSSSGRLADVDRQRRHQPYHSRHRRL

Q: How did the Potency turn out when `COc1ccc(-c2csc(Cc3nnc(N4CCOCC4)n3-c3ccccc3)n2)cc1` was run?
A: inconclusive: 31.6 µM [activator, single point]

Q: With `CCOc1ccc(CCNC(=O)c2cn(C)c3ccc(S(=O)(=O)N4CCCCC4)cc3c2=O)cc1OCC` as the compound, how does the Potency read?
A: inconclusive: 20 µM [activator, single point]

Q: `COc1ccc(-c2n[nH]c3c2C(c2ccc(OC)c(OC)c2)N(c2ccccc2)C3=O)cc1` (stereo not given) was tested. Which Potency did it give?
A: inconclusive: 39.8 µM [activator, single point]

Q: For `CCOC(=O)c1c(C)[nH]c(C)c1S(=O)(=O)N1CCC(C(=O)Nc2cc(Cl)ccc2OC)CC1`, which Potency is on record?
A: inconclusive: 39.8 µM [activator, single point]

Q: With `C(=C1/CCCC2=C1Nc1ncnn1C2c1ccccc1)/c1ccccc1` (stereo not given) as the compound, how does the Potency read?
A: inconclusive: 31.6 µM [activator, single point]

Q: For `CCN(CC)S(=O)(=O)c1ccc(O)c(NC(=O)c2ccc(N3CCOCC3)c([N+](=O)[O-])c2)c1`, which Potency is on record?
A: inconclusive: 39.8 µM [inhibitor, single point]

Q: `COc1ccc(Nc2ncnc3sc(-c4ccccc4)cc23)cc1` was tested. Which Potency did it give?
A: active: 31.6 µM

Q: With `O=C1c2ccccc2S(=O)(=O)N1CC(O)Cn1ccc2ccccc21` (stereo not given) as the compound, how does the Potency read?
A: inconclusive: 39.8 µM [inhibitor, single point]

Q: `O=C1N/C(=N\N=C\c2cccs2)SC1Cc1cccc(Cl)c1Cl` (stereo not given) was tested. Which Potency did it give?
A: inconclusive: 0.199 µM [inhibitor, full curve, poor fit]

Q: How did the Potency turn out when `COC(=O)c1cccc(Cn2c(Cl)c(/C=N/Nc3ccccc3C)sc2=O)c1` was run?
A: active: 12.6 µM

Q: Which max response, negative = inhibition does the source give for `Nc1ccc(N=Nc2c(S(=O)(=O)O)cc3ccccc3c2S(=O)(=O)O)cc1` here?
A: inactive: 2.32%

Q: `CCCCC(=O)Nc1sc2c(c1-c1nc3ccccc3s1)CCN(C(C)=O)C2` was tested. Which Potency did it give?
A: inconclusive: 25.1 µM [activator, partial curve]

Q: Which Potency does the source give for `O=C(Nc1ccc(N2CCN(C(=O)c3ccco3)CC2)cc1)c1ccc2c(c1)OCO2` here?
A: inconclusive: 31.6 µM [inhibitor, single point]

Q: With `COc1ccccc1-n1c(SCC(=O)c2ccc(O)cc2O)nc2cc([N+](=O)[O-])ccc21` as the compound, how does the Potency read?
A: active: 12.6 µM

Q: With `COc1cccc(CNC(=O)c2ccc3c(c2)c(C)c(C)n3Cc2ccccc2)c1` as the compound, how does the Potency read?
A: inconclusive: 31.6 µM [inhibitor, single point]

Q: With `COc1cc2nc(SCc3ccc(F)cc3)n(Cc3cccs3)c(=N)c2cc1OC` as the compound, how does the Potency read?
A: inconclusive: 39.8 µM [inhibitor, single point]

Q: How did the Potency turn out when `Cc1cccc(NC(=O)C2CCCN(S(=O)(=O)c3c(C)nn(C)c3C)C2)n1` (stereo not given) was run?
A: inconclusive: 3.16 µM [inhibitor, single point]

Q: With `Cc1noc(C)c1COc1ccc(C(=O)OC(C)C(=O)Nc2ccc(N3CCOCC3)cc2)cc1` (stereo not given) as the compound, how does the Potency read?
A: inconclusive: 39.8 µM [activator, single point]

Q: `Cc1cc(-c2nc3c4c5c(sc4[nH]c(=O)n3n2)CCC5)c(C)o1` was tested. Which Potency did it give?
A: inconclusive: 25.1 µM [activator, partial curve]

Q: `COc1cc(Cl)c(C)cc1NC(=O)C1CCN(c2nc3ccccc3n3cccc23)CC1` was tested. Which Potency did it give?
A: inconclusive: 39.8 µM [inhibitor, single point]

Q: How did the Potency turn out when `CCCCC/C=C\C/C=C\C/C=C\C/C=C\CCCC(=O)NCC(=O)O` was run?
A: inconclusive: 7.94 µM [activator, partial curve]

Q: Which Potency does the source give for `COc1cc(/C=C2/SC(=S)N(CC(=O)Nc3cccnc3)C2=O)cc(OC)c1OC` here?
A: inconclusive: 39.8 µM [activator, single point]

Q: How did the Potency turn out when `CCN(CC)c1ccc(N2C(=O)/C(=C\c3cccnc3)SC2=S)cc1` was run?
A: inconclusive: 39.8 µM [activator, single point]

Q: For `CCc1cccc(C)c1NS(=O)(=O)c1c(C(=O)N2CCC(C)CC2)c(C)n(C)c1C`, which Potency is on record?
A: inconclusive: 25.1 µM [activator, partial curve]

Q: How did the max response, negative = inhibition turn out when `O=C(Nc1nnc(S(=O)(=O)N2CCCc3ccccc32)s1)c1cccc(Cl)c1` was run?
A: inactive: 10.5%

Q: With `COc1cccc(C2C(C(=O)Nc3ccc(C)cc3C)=C(C)Nc3c(C(=O)Nc4ccccc4)cnn32)c1` (stereo not given) as the compound, how does the Potency read?
A: inconclusive: 39.8 µM [inhibitor, single point]

Q: With `COCCn1c(=O)c(C)nc2cnc(N3CCN(C)CC3)nc21` as the compound, how does the Potency read?
A: inconclusive: 39.8 µM [inhibitor, single point]

Q: How did the max response, negative = inhibition turn out when `CCCCC/C=C\CC(O)/C=C/c1cccc(CC(O)CCCCO)n1` (stereo not given) was run?
A: inactive: -1.33% and inactive: -5.09%

Q: `CCCSc1ncc(Cl)c(C(=O)Nc2ccc(S(=O)(=O)N(C)c3ccccc3)cc2)n1` was tested. Which Potency did it give?
A: inconclusive: 39.8 µM [inhibitor, single point]

Q: Which Potency does the source give for `Cc1cc(C)c(NC(=O)c2cc(S(=O)(=O)N3CCC4(CC3)OCCO4)ccc2F)c(C)c1` here?
A: inconclusive: 0.0794 µM [activator, partial curve, poor fit]

Q: With `Cc1ccc(-c2nc(NC(=O)CSc3cc(C)c4ccccc4n3)ns2)cc1` as the compound, how does the Potency read?
A: inconclusive: 39.8 µM [inhibitor, single point]

Q: And the max response, negative = inhibition?
A: inactive: 4.13%

Q: Which Potency does the source give for `CCCNC(=O)c1c[nH]c2ccc(S(=O)(=O)N(C)c3ccc(OCC)cc3)cc2c1=O` here?
A: inconclusive: 39.8 µM [activator, single point]

Q: How did the Potency turn out when `COc1cc(C2C(C#N)=C(N)Oc3c2ccc2ccccc32)ccc1OCC(=O)Nc1ccccc1C` (stereo not given) was run?
A: active: 12.6 µM

Q: With `O=C(CC1Sc2ccccc2NC1=O)OC(C(=O)NCCc1ccccc1)c1cccnc1` (stereo not given) as the compound, how does the Potency read?
A: inconclusive: 20 µM [inhibitor, single point]

Q: Which Potency does the source give for `Cc1ccc(C(=O)/C=C/Nc2ccc3c(c2)OCO3)cc1` here?
A: inconclusive: 31.6 µM [inhibitor, single point]

Q: For `Cc1ccc(C)c(N2CCN(S(=O)(=O)c3ccc4[nH]c5c(c4c3)CCCCC5)CC2)c1`, which Potency is on record?
A: active: 7.94 µM

Q: For `CC(C)Cn1cc(NC(=O)N2CCN(c3cccc(Cl)c3)CC2)c2ccccc2c1=O`, which max response, negative = inhibition is on record?
A: inactive: 2.54%

Q: `CCSc1nnc(NC(=O)c2cccs2)s1` was tested. Which Potency did it give?
A: inconclusive: 39.8 µM [inhibitor, single point]

Q: How did the max response, negative = inhibition turn out when `CC1CCN(S(=O)(=O)c2ccc3c(c2)N(CC(=O)NC(C)c2ccccc2)C(=O)CS3)CC1` (stereo not given) was run?
A: inactive: 3.96%

— PubChem BioAssay AID1476 (National Center for Advancing Translational Sciences (NCATS), 2009)
